# PubChem BioAssay AID1454 (National Center for Advancing Translational Sciences (NCATS), 2008)
# Hit rate of the full screen: of about 130,000 compounds, about 550 (0.42%) were called active. The shares of active, inactive and inconclusive entries below differ from those in the screen. Calls come from the whole dose curve; as a rule, active = well fitted inhibition curve with a large enough effect; inconclusive = small, poorly fitted or top-dose-only effect, or effect the other way; inactive = flat fitted curve, though single readings scatter. Potencies of inconclusive entries are left out as doubtful fits.
# Experiment: qHTS Assay for Inhibitors of the ERK Signaling Pathway using a Homogeneous Screening Assay; Stimulation with EGF; note: nearly all actives have a fitted effect of over 55% in size
# Details: HEK293-V1b, EGF-stimulated phospho-ERK AlphaScreen
# In short: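 In this qHTS, HEK293 cells with stable type-1 vasopressin (V1b) receptor were exposed to compound at 37C for 30 min, stimulated 5 min with EGF at 25 nM, lysed, and probed for phospho-ERK by AlphaScreen.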
# Potency is the fitted concentration of half-maximal effect; tags give direction and shape of the fitted curve.
row,Structure (SMILES),Potency
1,CCOC(=O)c1cccc(NC(=O)/C=C/c2ccc3c(c2)OCO3)c1,"inconclusive [inhibitor, single point]"
2,CCOCCCNC(=O)C(NC(=O)Cc1c[nH]c2ccccc12)c1ccc(OC)cc1 (centres undefined),inactive
3,Cn1cccc1C(=O)N1CCC2(CC1)CCN(C(c1ccccc1)c1ccccc1)CC2,inactive
4,c1ccc(Nc2ccnc(Nc3ccccc3)n2)cc1,"inconclusive [inhibitor, partial curve]"
5,CC1CCc2c(sc3ncnc(NCCN4CCOCC4)c23)C1 (centres undefined),inactive
6,C[n+]1c2n(c3ccccc31)N=C(c1cc(C(C)(C)C)c(O)c(C(C)(C)C)c1)CS2,"inconclusive [inhibitor, single point]"
7,CCc1nnc(NC(=O)c2ccc(Cl)c(S(=O)(=O)N3CCc4ccccc4C3)c2)s1,"inconclusive [inhibitor, single point]"
8,O=C(/C=C/c1ccco1)Nc1nc(-c2ccccc2)cs1,active: 25.1 µM
9,CCOC(=O)c1c(CSC(=N)N)n(-c2ccc(Br)cc2)c2cc(Br)c(OC(C)=O)cc12,"inconclusive [inhibitor, single point]"
10,CS(=O)(=O)N1CCC2(CCCN(Cc3cc(C(F)(F)F)cc(C(F)(F)F)c3)C2)CC1,inactive
11,NNc1nc2sc3c(c2c(=O)n1C1CCCCC1)CCN(Cc1ccccc1)C3,"inconclusive [inhibitor, partial curve]"
12,COC(=O)c1ccccc1NC(=O)COC(=O)[C@H](C)NC(N)=O,inactive
13,COc1ccc(NC(=S)NNc2ccc(S(=O)(=O)Nc3ccccc3C(=O)O)cc2[N+](=O)[O-])cc1,"inconclusive [inhibitor, partial curve, poor fit]"
14,COc1ccc(-c2csc(NC(=O)c3ccc(OCC(=O)N4CCOCC4)c(OC)c3)n2)cc1OC,"inconclusive [inhibitor, single point]"
15,COc1ccc(-c2cc(C(=O)Nc3c(C)n(C)n(-c4ccccc4)c3=O)no2)cc1OC,"inconclusive [inhibitor, single point]"
16,CCN1CCCC1Cn1c(-c2ccccc2)nc2c(N(CCOC)CCOC)nc(C)nc21 (centres undefined),inactive
17,O=c1c(O)cccc2cc(O)c(O)c(O)c12,"inconclusive [inhibitor, full curve, poor fit]"
18,O=C(Nc1ccccc1)C1=C(c2ccccc2)S(=O)(=O)CCS1(=O)=O,inactive
19,On1nnc2ccccc21,"inconclusive [activator, full curve, poor fit]"
20,CCOC(=O)c1ccc2c(c1)NCc1cccc(OC)c1O2,inactive
21,OC[C@H]1O[C@@H](n2cnc3c(Nc4ccccc4)ncnc32)[C@H](O)[C@H]1O,inactive
22,CC(=O)c1cccc(NC(=O)Nc2csc3c2CCCC3)c1,active: 25.1 µM
23,CCCCCc1cc(=O)oc2c(C(CCN3CCCC(C)C3)c3ccc4c(c3)OCO4)c(OC)cc(OC)c12 (centres undefined),"inconclusive [inhibitor, single point]"

row,Structure (SMILES),Potency
1,CC(C)(C)c1cc(C(=O)NNc2cccc(Cl)c2)n(Cc2ccccc2)n1,"inconclusive [inhibitor, single point]"
2,COCc1nnc(NC(C)=O)s1,inactive
3,Cc1c(C#N)c(NC(=O)CCl)n(Cc2cccs2)c1C,inactive
4,COc1cc(/C=N/n2c(=S)[nH]nc(C)c2=O)cc([N+](=O)[O-])c1O,"inconclusive [activator, partial curve, poor fit]"
5,O=C(CCl)Nc1cn(-c2ccccc2)nc1-c1ccccc1,inactive
6,Oc1ccc2ccccc2c1N=Nc1ccccc1F,active: 14.1 µM
7,CC(C)Oc1ccc(/C=C/C(=O)NCC2COc3ccccc3O2)cc1 (centres undefined),"inconclusive [inhibitor, single point]"
8,CN(C)c1ccc(/C=C(\C#N)c2ccccc2)cc1,"inconclusive [inhibitor, full curve, poor fit]"
9,COc1cccc(OCCn2cc(/C=N/NC(=O)c3ccncc3)c3ccccc32)c1,"inconclusive [inhibitor, single point]"
10,CCCCC(=O)NC(c1cccc([N+](=O)[O-])c1)c1c(OC(C)=O)ccc2ccccc12 (centres undefined),"inconclusive [inhibitor, partial curve]"
11,Cc1cc(C)cc(NC(=O)Cn2c(SCc3cc(C)ccc3C)nc3ccncc32)c1,inactive
12,CCCCN1C(=O)/C(=C/C=C2\SCCN2C)SC1=S,"inconclusive [inhibitor, partial curve]"
13,CC(=O)Nc1ccc(S(=O)(=O)Oc2ccccc2N2CCCCC2)cc1,"inconclusive [inhibitor, single point]"
14,O=[N+]([O-])c1cccc(-c2noc(-c3ccco3)n2)c1,"inconclusive [inhibitor, single point]"
15,CCCCc1ccc(NC(=S)Nc2ccc(Cl)c(S(=O)(=O)N(C)C)c2)cc1,"inconclusive [inhibitor, single point]"
16,CCOC(=O)c1c(C)n2c3c(cc(C)cc13)CCC2,"inconclusive [activator, full curve]"
17,CCN(CC)S(=O)(=O)c1ccc(Cl)c(NC(=O)COC(=O)c2ccc(O)cc2)c1,active: 28.2 µM
18,COc1ccc(-n2c(=O)c3ccccc3n(CC(=O)Nc3cccc(OC)c3)c2=O)cc1,"inconclusive [inhibitor, single point]"
19,O=[N+]([O-])c1ccc(Oc2cccc3cccnc23)c([N+](=O)[O-])c1,"inconclusive [inhibitor, single point]"
20,COC(=O)[C@@]1(Cc2ccc(F)cc2)[C@H]2c3cc(C(=O)N4CCCC4)n(CCSCCO)c3C[C@H]2CN1C(=O)c1ccccc1,inactive
21,C[C@]12C[C@@](C)(C=C1/C=C/c1ccc(F)cc1)C(=O)C[C@H]2c1ccc(F)cc1,inactive
22,Cn1nc([N+](=O)[O-])c(C(C#N)c2nc3ccccc3n2C)c(Cl)c1=O (centres undefined),"inconclusive [inhibitor, partial curve]"
23,COc1cc([N+](=O)[O-])cc(/C=N/NC(=O)C(C)Nc2cccc3ccccc23)c1O (centres undefined),inactive

row,Structure (SMILES),Potency
1,c1ccc2c(c1)Cc1cc3cc4c(cc3nc1-2)OCO4,"inconclusive [inhibitor, single point]"
2,CCCNc1ncnc2c1cnn2-c1ccc(OC)cc1,"inconclusive [activator, partial curve]"
3,O=C(NCc1ccc2c(c1)OCO2)c1ccc(N2CCCCCC2)c([N+](=O)[O-])c1,"inconclusive [inhibitor, single point]"
4,CCOC(=O)c1c(NC(=O)CSc2c[nH]c3ccccc23)sc2c1CCCC2,"inconclusive [inhibitor, partial curve]"
5,CC(=C/C(=O)O)/C(=C\c1ccc(Br)o1)C(=O)O,inactive
6,CCCCCc1ccc(OCCCC[n+]2ccc(C)cc2)c(CCCCC)c1,"inconclusive [inhibitor, single point]"
7,O=C(CCCN1CC=C(n2c(=O)[nH]c3ccccc32)CC1)c1ccc(F)cc1,"inconclusive [inhibitor, full curve, poor fit]"
8,CCCn1nc(NC(=O)C2CCCO2)c2cc3cccc(C)c3nc21 (centres undefined),"inconclusive [activator, single point]"
9,CCOC(=O)c1ccc(N2C(=O)CC(C)(CC)CC2=O)cc1,"inconclusive [inhibitor, partial curve]"
10,CN1C(=O)/C(=C/c2ccco2)SC1=Nc1ccc(N2CCOCC2)cc1,"inconclusive [inhibitor, single point]"
11,CC(C)CN1CC2(CCN(C(=O)c3csnn3)CC2)C1,inactive
12,O=C(Nc1ccc(-c2noc(-c3cccs3)n2)cc1)c1cccnc1,"inconclusive [inhibitor, partial curve]"
13,CCCCCc1cc(=O)oc2c(C(CCN3CCCC(C)C3)c3ccc(OC)cc3)c(OC)cc(OC)c12 (centres undefined),"inconclusive [inhibitor, single point]"
14,COC(=O)[C@]1(C)CCC[C@]2(C)c3ccc(C(C)C)cc3C(=O)CC12 (some centres undefined),inactive
15,COc1ccc(-c2csc(Nc3ccccc3)[n+]2CC(O)c2ccc([N+](=O)[O-])cc2)cc1 (centres undefined),"inconclusive [inhibitor, single point]"
16,Cc1cc(C)n(-c2ccc(C(=O)Nc3cccc(S(=O)(=O)N4CCCC4)c3)cc2)n1,"inconclusive [inhibitor, single point]"
17,C=CCOC(=O)N[C@H](/C(C(=O)OC)=C(\C)NCc1ccccc1)c1cccc(OC)c1,inactive
18,O=C(Nc1ccc(Nc2ccncc2)cc1)c1ccc([N+](=O)[O-])cc1,"inconclusive [inhibitor, partial curve]"
19,CC(=O)N1N=C(c2ccc3ccccc3c2)OC12CCCC2,"inconclusive [inhibitor, partial curve]"
20,COC(=O)[C@@]1(Cc2ccc(OC)cc2)[C@H]2c3cc(C(=O)N4CCCC4)n(CCF)c3C[C@H]2CN1C(=O)c1ccccc1,inactive
21,Cc1ccc(S(=O)(=O)N(C)C)cc1NC(=S)N1CCN(Cc2ccc3c(c2)OCO3)CC1,"inconclusive [inhibitor, single point]"
22,COc1ccccc1C(=O)N1CCN(Cc2ccc3c(c2)OCO3)CC1,inactive
23,CCOc1ccc(/C=N/NC(=S)NC2CC3C=CC2C3)cc1 (centres undefined),"inconclusive [inhibitor, single point]"
